This data set has as its system ATP. The experiment in a line: switch fluorescence ratio, 500 uM ATP over buffer (Cy3 cluster intensity, sum of 5 cycles each) (fold (ratio)); higher = stronger signal-on switching upon ATP binding; sequences stand for … in TCGTCGGCAGCGTCAGATGTGTATAAGAGACAGTTTTTTTTTTTTTTTTTTTTTTTTT…TC. The conditions noted are these: aptamer strand: ATP DNA aptamer (quencher-CACCTGGGGGAGTATTGCGGAGGAAGG + anchor), 100 nM annealed; ATP concentration: 500 uM; one replicate. The method in brief:
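Clusters with intensities outside 100-1000 RFU were excluded. The remaining Cy3-labelled switching-strand clusters on a modified Illumina MiSeq flow-cell had been annealed to 100 nM quencher-labelled ATP aptamer and imaged in selection buffer, then after 15 min with 500 uM ATP at 22 °C, for five cycles separated by NaOH stripping and re-annealing. The fluorescence ratio, averaged per switch-domain sequence, is each cluster's summed target-cycle Cy3 intensity over its summed buffer-cycle Cy3 intensity.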

These results are taken from the supplement of paper PMC10126150.

Values marked as one replicate rest on one cluster of the flow cell; about a third of the high ones do not repeat.
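Also: ATP exposure 15 min at 22 °C before imaging.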

AGATTAAAGC: the switch fluorescence ratio was found to be 1.07. For the sequence CGTTCAAATG, the switch fluorescence ratio was determined as 1.03. With TTGCTCCA the figure was 1.01; with AATAACGGCG, 0.958; with ATTTTTGCTA, 0.974.

With GAAAATGAGG, the switch fluorescence ratio was 1.02. Next, AGATAAGCTC: 0.995; ACGTTTGTAG: 0.998; CCCCGAGTGT: 3.03. As for GGATTGCAAA, the switch fluorescence ratio was 0.928.

Turning to AGGAAGCTTC, the switch fluorescence ratio turned out to be 1. Next, CATTCCGTAT: 1.09; TGCTGGGTAA: 0.98; CGCAGGAGGA: 1.06. With ATGTTAAGGC the figure was 0.961; with CTGCATTGGC, 1.3; with TCGCAGTATT, 1.41. With TGCCTTGCGC the figure was 0.935; with CTCGTTTTAC, 1.07. With CATGGGTGTA, the switch fluorescence ratio worked out at 1.02. Next, TTGTCGCCT: 0.963. In the case of TGAGTGTTTG, the switch fluorescence ratio came out at 0.959. With ACGATTTGCC the figure was 1.05; with AGCATTAATA, 1.01; with AACAATGTGA, 0.966.

For CCCTTGAT, the switch fluorescence ratio is 1.01. Turning to ATTTCTGAGC, the switch fluorescence ratio came to 1.03.

On to TTAACCGGTT, for which the switch fluorescence ratio stood at 1.01. With CAATGCGTCG the figure was 0.997; with GATCTAGTAG, 0.992; with TCTTCGCGTC, 1.3.

With TGATGAGTAG, the switch fluorescence ratio was 0.997.

Turning to AGTACCTCTG, the switch fluorescence ratio came to 0.988.

In the case of ATATTTGTA, the switch fluorescence ratio is 1.01.

As to GCCAAGATTA, the switch fluorescence ratio is 0.988.

For CTTAAAAGTT, the switch fluorescence ratio worked out at 0.998.

Regarding CGCTAAGTGG, the switch fluorescence ratio was 1.07. As to TAGAGCGCTT, the switch fluorescence ratio worked out at 1. Regarding AAACCCATAG, the switch fluorescence ratio was 1.06. For TTGCAACAG, the switch fluorescence ratio worked out at 1.02.

Regarding AGAAGGAATC, the switch fluorescence ratio was determined as 1.02. Next, TTTTCCTCTA: 1.03. Turning to GGTGTATGCC, the switch fluorescence ratio worked out at 0.988.

As to TGCGGAAGGT, the switch fluorescence ratio stood at 1.01. With AAATACGAGG the figure was 1.04; with TGGTTGCGGG, 1.08.

With TGACTCTTAA, the switch fluorescence ratio was determined as 1.03. With CAGCGGAAGT the figure was 0.989; with GCGCTCTGAC, 1.33.

For the sequence GAGCATAGGT, the switch fluorescence ratio was 1.04. Next, ATCAGGTTGC: 1.01. Next, GTAGCAGGGA: 1.15; ACGAGTAGGG: 0.973; ACGGTGACCT: 1.28.

As to TGTCAACAGC, the switch fluorescence ratio is 1.12. For CTTGGACTTG, the switch fluorescence ratio was 0.929.

Regarding TATTGATACC, the switch fluorescence ratio was 1.03. With CTTTATACTA the figure was 0.972; with AAAGGATTTT, 0.997.

TTGCCTATTG: the switch fluorescence ratio came out at 1. With CACCCGCGGA, the switch fluorescence ratio was 1.05.

As to ACTATAGT, the switch fluorescence ratio was 1.03. Consider GGTCCCTACG, for which the switch fluorescence ratio was found to be 1.08. Next, AGAGCAGTC: 0.97; CGATTTGGCT: 1.01. With CGATGTGGAC the figure was 1.43; with GGAGGGTGAA, 1.03; with GAAATCGCCT, 1.06. As for TCGAGGACT, the switch fluorescence ratio is 1.06.

For CTGCCTACTT, the switch fluorescence ratio worked out at 1.06. Turning to AGTGCTGGAT, the switch fluorescence ratio is 1.04.

Take GTCTTTAAAC: the switch fluorescence ratio is 1. On to TCAATCACCT, for which the switch fluorescence ratio was determined as 1.12. Next, CAACCGGTGG: 1.02; GCGGCTTAGG: 1.02. For ATAGGAGTC, the switch fluorescence ratio was found to be 1. As for TAAGGTATAG, the switch fluorescence ratio was 1.01. With GTCATC the figure was 1.04. With ATCGAACGAT the figure was 0.966; with AACTACTACT, 1.13; with GCTAGCGATG, 0.989.

With GAATCTCTTG, the switch fluorescence ratio was 0.977.

TGGGTGCTTT: the switch fluorescence ratio was found to be 1.03.

Regarding TTCAGCTGTA, the switch fluorescence ratio turned out to be 1.03. With GAAAGTTGAG the figure was 0.969; with GATAAAGAAT, 1.03.

For the sequence CCGAGCAGGA, the switch fluorescence ratio worked out at 2.9. ATTGTGATGC: the switch fluorescence ratio was 1.02.

For the sequence CGACAGTAGA, the switch fluorescence ratio is 1.05.

With CATGCCCTGT, the switch fluorescence ratio is 1.09.

TGGTATTGCC: the switch fluorescence ratio amounted to 1.04.

With TCCATAGGC, the switch fluorescence ratio is 1.12. Next, AATATCCAG: 0.984; GAACCATGAT: 0.946. Next, TGCAAGATGG: 1.08; AGATCCTTCC: 2.18; TAGGGAGACG: 0.964.

In the case of GGTGATAATA, the switch fluorescence ratio worked out at 0.994. Consider TCGCCAAGAT, for which the switch fluorescence ratio worked out at 1.16.

Consider ATGTGGGCGA, for which the switch fluorescence ratio turned out to be 0.966. Next, TCGGTGCGGG: 0.982; TGAGATACAG: 0.999; GTATTATGAC: 1.01. Next, TCGGAATCGA: 1.03; CCCCATCGAT: 1.03; AGAGCCGATG: 1.03. Regarding CCATGATACA, the switch fluorescence ratio was 1.01.

GATATAGTCC: the switch fluorescence ratio is 0.998. With CTCGGCTGG the figure was 1.02; with TTTAGAACGG, 1.01.

As for AGGGGGCCGA, the switch fluorescence ratio turned out to be 1.03. On to TCGGTGATG, for which the switch fluorescence ratio worked out at 1.03.

GCGACCCGT: the switch fluorescence ratio was 1.16.

As to CCAAACTTTT, the switch fluorescence ratio stood at 1.02. Next, GTAGCGCCGT: 0.989. With CCGAAAGTAA, the switch fluorescence ratio was 5.22. For the sequence GCCGAAGGGC, the switch fluorescence ratio was 1. With TGTTTCACAT the figure was 0.996. With CGGGCATACG the figure was 1.13; with GTCCACTAGA, 1.03. As to TAGTTACGTA, the switch fluorescence ratio was found to be 1.11.
